Test results reported in PubChem BioAssay AID927 (National Center for Advancing Translational Sciences (NCATS), 2007).
About 65 (0.1%) of roughly 60,000 compounds were called active. Inconclusive results, whose numbers are uncertain, are shown with a selection of clear calls. The call rests on the fitted dose curve; in most records, active means well fitted inhibition curve with a large enough effect; inconclusive means small, poorly fitted or top-dose-only effect; inactive means no such curve, though single readings can be large or run the other way. Where the call is inconclusive, the potency comes from a doubtful curve fit.

Target: Ubiquitin carboxyl-terminal hydrolase 2 (Homo sapiens) (UniProt O75604)
UniProt O75604, sequence (O75604 whole entry, looked up): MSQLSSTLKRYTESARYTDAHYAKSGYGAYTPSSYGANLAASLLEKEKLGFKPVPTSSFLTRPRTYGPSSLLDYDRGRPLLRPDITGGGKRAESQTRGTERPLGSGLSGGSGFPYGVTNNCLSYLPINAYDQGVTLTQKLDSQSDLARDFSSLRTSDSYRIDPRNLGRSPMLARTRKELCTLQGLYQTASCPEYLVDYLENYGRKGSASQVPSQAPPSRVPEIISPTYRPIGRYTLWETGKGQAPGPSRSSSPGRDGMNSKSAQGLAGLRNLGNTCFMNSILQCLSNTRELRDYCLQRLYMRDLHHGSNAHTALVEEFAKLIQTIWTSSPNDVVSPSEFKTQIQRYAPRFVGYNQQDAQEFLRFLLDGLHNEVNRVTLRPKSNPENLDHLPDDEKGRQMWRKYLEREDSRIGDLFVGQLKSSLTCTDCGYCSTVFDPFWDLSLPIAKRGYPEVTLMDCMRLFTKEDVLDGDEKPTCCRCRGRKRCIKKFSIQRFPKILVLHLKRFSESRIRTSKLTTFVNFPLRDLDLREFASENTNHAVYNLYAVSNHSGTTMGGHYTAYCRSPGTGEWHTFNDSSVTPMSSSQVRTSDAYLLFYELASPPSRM
Experiment: qHTS Assay for Inhibitors of Ubiquitin-specific Protease USP2a; further: nearly all actives have a fitted effect of over 60% in size;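 on activity change, negative = inhibition: plate controls were DMSO for no effect and NEM full inhibition control for full effect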
Details: USP2a enzymatic assay; Potency: qHTS inhibition; activity change, negative = inhibition: at 38.3 µM (top of the series)
Procedure, shortened: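 Inhibition is measured in a cell-free coupled assay with 20 nM USP2 core, 20 nM Ub-PLA2 and 20 uM NBD C6-HPC, 2.5 h incubation. Activity normalized to NEM control.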
Potency means the concentration at half of the fitted maximal effect; tags describe the fitted curve by direction and shape.

SMILES | Potency | activity change, negative = inhibition
Cc1nn(-c2ccccc2)c2sc(C(=O)N3CCCCC3)cc12 | inconclusive: 25.1 µM [inhibitor, single point] | –
CCCCc1ccc(C2C(C#N)=C(N)SC(N)=C2C#N)s1 | – | inactive: 31.8% [at 7.66 µM]
CS(=O)(=O)NCc1ccc(C(=O)NCCOc2ccccc2)cc1 | inactive | –
CCn1c(=S)sc2nc(C)sc21 | inactive | –
O=C(Nc1nccs1)Oc1ccccc1 | inactive | –
COc1ccc(CNc2nc(-c3cccnc3)nc3ccccc23)c(OC)c1 | inconclusive: 25.1 µM [inhibitor, single point] | –
Cc1nc2[nH]c(=O)c3c(n2n1)NC1=C(C(=O)CC(C)(C)C1)C3c1ccccc1 (configuration not stated) | inconclusive: 12.6 µM [inhibitor, single point] | –
CC(Oc1ccc(Cl)cc1Cl)C(=O)Nc1ccc2oc(-c3ccncc3)nc2c1 (configuration not stated) | inactive | –
CCOc1cc2[nH]c(=S)n(CCCOC)c(=O)c2cc1OCC | inactive | –
Cc1cc(N2CCCCCC2)nc(-c2ccccc2O)n1 | inconclusive: 10 µM [inhibitor, single point] | –
CCCCCCN(CCCCCC)C(=O)Cc1c(-c2ccc(F)cc2)[nH]c2ccccc12 | inactive | –
COc1ccc(NC(C)=O)cc1NC(=O)CN1CCN(C2c3ccccc3-c3ccccc32)CC1 | inconclusive: 25.1 µM [inhibitor, single point] | –
CC(C)NC(=O)N1CCCC2(CCN(C(=O)c3ccco3)CC2)C1 | inconclusive: 25.1 µM [inhibitor, single point] | –
COc1cccc(-c2nc(NCc3ccccc3OC)c3ccccc3n2)c1 | inconclusive: 25.1 µM [inhibitor, single point] | –
CCc1ccc(CC)c(S(=O)(=O)Nc2ccc(O)c(C(=O)O)c2)c1 | inconclusive: 12.6 µM [inhibitor, single point] | –
COc1ccc(NC(=O)N2CC[C@@]3(CCCN(C(C)=O)C3)C2)cc1 | active: 10 µM | –
COCCNc1nc(-c2c(C)noc2C)nc2ccccc12 | inconclusive: 31.6 µM [inhibitor, single point] | –
O=C(CN1CC(=O)Oc2ccccc21)OCC(=O)c1ccccc1 | inconclusive: 3.98 µM [inhibitor, partial curve] | –
Nc1c(S(=O)(=O)O)cc(Nc2ccc(Nc3nc(Cl)nc(Nc4ccc(S(=O)(=O)O)cc4)n3)c(S(=O)(=O)O)c2)c2c1C(=O)c1ccccc1C2=O | active: 7.94 µM | –
Cn1c(Cn2nnc3ccccc32)nnc1SCC(=O)c1ccc(F)cc1 | inconclusive: 25.1 µM [inhibitor, single point] | –
CN1CCN(CC#CC(C)(O)C2CC3C=CC2C3)CC1 (configuration not stated) | inconclusive: 10 µM [inhibitor, single point] | –
Oc1ccc(Nc2nc(-c3ccc(O)cc3)cs2)cc1 | inconclusive: 25.1 µM [inhibitor, single point] | –
COc1ccccc1NS(=O)(=O)c1ccc(Br)s1 | inactive | –
COc1cc(OC)c(OC)cc1CNc1cc(C)ccc1OC | inactive | –

SMILES | Potency | activity change, negative = inhibition
CCN(CC)c1nc(-c2nn[nH]n2)nc(N(CC)CC)n1 | inconclusive: 10 µM [inhibitor, partial curve] | –
COCCNc1nc(-c2ccc(C(=O)N(C)C)cc2)nc2ccccc12 | inconclusive: 25.1 µM [inhibitor, single point] | –
COc1cc(O)c(C(=O)/C=C/c2ccc(OC)c(O)c2)c(OC)c1 | inconclusive: 25.1 µM [inhibitor, single point] | –
CS(=O)(=O)Nc1cccc(-c2nc(NCc3cccs3)c3ccccc3n2)c1 | inconclusive: 25.1 µM [inhibitor, single point] | –
COc1ccccc1CN(CC(=O)NCC1CCCO1)C(=O)CNS(=O)(=O)c1ccc(C)cc1 (configuration not stated) | inconclusive: 3.98 µM [inhibitor, single point] | –
Cn1c(=O)n(C)c2cc(NS(=O)(=O)c3ccc4c(c3)CCCC4)ccc21 | inactive | –
Cc1cccc(Cc2c(C)nc3c(C(=O)NCc4ccco4)cnn3c2C)c1 | inconclusive: 25.1 µM [inhibitor, single point] | –
Cc1nc2c(C(=O)NCc3ccco3)cnn2c(C)c1Cc1ccc(F)cc1Cl | inactive | –
CCCCCCCCCCCCCCCC(=O)O[C@H](CC(=O)O)C[N+](C)(C)C | inactive | –
Cc1nc2ccc(C(=O)O)cc2c2c1CC(C)S2 (configuration not stated) | inconclusive: 12.6 µM [inhibitor, single point] | –
COc1cccc(Cn2c(=O)c(-c3ccc(Cl)cc3)nc3cnc(N4CCN(C)CC4)nc32)c1 | inactive | –
c1ccc2c(Nc3ccncc3)nc(-c3ccoc3)nc2c1 | – | inconclusive: -31.6% [inhibitor]
COc1nc(Oc2ccc(=O)n(C)n2)nc(N(C)C)n1 | inactive | –
CCC(=O)N1c2ccc(S(=O)(=O)CCC(=O)N3CCN(c4ccccc4)CC3)cc2CC1C (configuration not stated) | inactive | –
CCOc1nc(C)ccc1-c1noc(-c2ccccn2)n1 | inactive | –
COc1ccc2[nH]cc(CCNc3nc(-c4c(C)noc4C)nc4ccccc34)c2c1 | inconclusive: 25.1 µM [inhibitor, single point] | –
COc1cc(O)c2c(=O)cc(-c3ccc(OC)c(-c4c(O)cc(O)c5c(=O)cc(-c6ccc(O)cc6)oc45)c3)oc2c1 | inconclusive: 25.1 µM [inhibitor, single point] | –
CS(=O)(=O)Nc1cccc(-c2nc(Nc3ccc(F)cc3)c3ccccc3n2)c1 | inconclusive: 25.1 µM [inhibitor, single point] | –
CC(C)(C)n1nnnc1C(c1cccs1)N(Cc1ccccc1)Cc1ccco1 (configuration not stated) | inconclusive: 10 µM [inhibitor, partial curve] | –
Cc1nc2ncnn2c(N2CCN(C(c3ccccc3)c3ccccc3)CC2)c1C | inconclusive: 25.1 µM [inhibitor, single point] | –
CCOc1ccc(OCC)c(NC(=O)C2CCN(c3ncccn3)CC2)c1 | inactive | –
Cc1c(Cl)cccc1Nc1ccccc1C(=O)O | inconclusive: 10 µM [inhibitor, partial curve] | –
Cc1ccc(Cl)cc1N1CCN(C(=O)c2cn(C)c(=O)c3c2c2ccccc2n3C)CC1 | inactive | –
